# Data: PMC4336329 (PLoS ONE, 2015)
# The campaign covered roughly 310,000 compounds. About 14,000 (4.5%) showed an effect of 50% or more. Effects have a minus sign here. The list shows a part of the results.
# Biological target: human ether-à-go-go-related gene (hERG) potassium channel (human, UniProt Q12809)
# Assay: primary screen, population patch clamp on CHO cells stably expressing hERG
# 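Note: peak tail current of the secondary pulse compared with the same well before compound.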
# Sequence of human ether-à-go-go-related gene (hERG) potassium channel (Q12809 whole entry, looked up): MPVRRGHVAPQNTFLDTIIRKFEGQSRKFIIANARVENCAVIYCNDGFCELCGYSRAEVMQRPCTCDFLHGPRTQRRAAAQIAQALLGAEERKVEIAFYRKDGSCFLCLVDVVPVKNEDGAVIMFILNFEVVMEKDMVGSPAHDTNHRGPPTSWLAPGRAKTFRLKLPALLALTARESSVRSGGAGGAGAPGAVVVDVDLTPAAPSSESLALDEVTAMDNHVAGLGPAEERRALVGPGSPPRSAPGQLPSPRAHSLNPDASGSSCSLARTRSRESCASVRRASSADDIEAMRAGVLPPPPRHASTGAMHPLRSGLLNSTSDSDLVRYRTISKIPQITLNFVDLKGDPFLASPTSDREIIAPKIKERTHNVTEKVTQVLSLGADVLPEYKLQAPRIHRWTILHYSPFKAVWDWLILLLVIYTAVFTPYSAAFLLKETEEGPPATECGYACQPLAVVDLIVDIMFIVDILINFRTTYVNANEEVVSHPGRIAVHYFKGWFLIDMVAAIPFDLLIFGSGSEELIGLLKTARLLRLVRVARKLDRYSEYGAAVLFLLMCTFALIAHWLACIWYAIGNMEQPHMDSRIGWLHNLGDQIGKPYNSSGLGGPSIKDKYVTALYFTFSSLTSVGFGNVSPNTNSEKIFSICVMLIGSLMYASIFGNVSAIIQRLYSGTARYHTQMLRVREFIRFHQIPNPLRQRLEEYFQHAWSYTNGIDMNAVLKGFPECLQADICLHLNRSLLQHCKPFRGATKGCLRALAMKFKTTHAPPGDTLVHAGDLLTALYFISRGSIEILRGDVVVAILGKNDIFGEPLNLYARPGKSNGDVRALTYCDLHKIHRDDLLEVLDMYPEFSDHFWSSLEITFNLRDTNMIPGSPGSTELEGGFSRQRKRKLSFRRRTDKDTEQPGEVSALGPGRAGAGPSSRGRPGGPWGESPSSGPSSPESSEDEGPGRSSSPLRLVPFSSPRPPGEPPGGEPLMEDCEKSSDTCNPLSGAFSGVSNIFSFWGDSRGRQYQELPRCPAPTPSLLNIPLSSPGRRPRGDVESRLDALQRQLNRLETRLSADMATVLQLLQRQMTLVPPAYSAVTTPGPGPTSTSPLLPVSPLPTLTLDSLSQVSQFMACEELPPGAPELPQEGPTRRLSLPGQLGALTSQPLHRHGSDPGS
row,SMILES,"hERG current change (%, negative = inhibition) at 10uM [%]"
1,O=C(Nc1ccncc1)c1ccc(NS(=O)(=O)c2cccc(F)c2)cc1,3.24
2,CCc1cccc(C)c1NC(=O)COC(=O)CC1CCCC1,9.2
3,COC(=O)[C@@H]1C[C@@]2(O)[C@@H](O)[C@@H](O)[C@@H](O)C[C@H]2N1Cc1ccc(-c2ccccc2)cc1,-7.43
4,COc1ccc(C(CNC(=O)CNC(=O)c2ccc(F)cc2)N2CCCC2)cc1 (stereo not drawn),-18.1
5,CCn1c(COc2ccc(=O)n(-c3ccccc3)n2)nnc1SCc1ccc(C)cc1,-59.9
6,O=C(COC(=O)C12CC3CC(CC(O)(C3)C1)C2)Nc1ccc(Br)cc1F,-21.5
7,COc1ccc(-n2c(SCC(=O)Nc3ccc(C)cc3)nc(O)c(Cc3ccccc3)c2=O)cc1,14.6
8,CCC(O)(CC)C(=O)NN(C(=O)Nc1csc2c1CCCC2)c1ccccc1,24.2
9,COc1ccc(N(C(=O)c2cccnc2)S(=O)(=O)c2ccccc2)cc1,-39.6
10,N#CC(C#N)=c1ccc2c(c1)NC1(CCCCC1)N=2,3.2
11,Cc1nn(C)c(C)c1CN(C(=O)C1CCC(=O)N(C2CCCCCC2)C1)C(C)C (stereo not drawn),10
12,CNS(=O)(=O)c1cccc(C(=O)OC2CCCCC2=O)c1 (stereo not drawn),23.8
13,OCc1ccc(O)c2ncccc12,1.44
14,C/C(=N/OC(=O)C1CC1c1ccccc1)c1ccccc1 (stereo not drawn),11.6
15,COCCCNc1nc2ccccc2nc1NS(=O)(=O)c1ccc(C)cc1,-8.35
16,CCOC(=O)Nc1ccc(NC(=O)c2c(OC)cccc2OC)cc1,11.1
17,COCCCNC(=O)CCn1c(=O)c2ccccc2n(Cc2cccc([N+](=O)[O-])c2)c1=O,-44.7
18,COC(=O)c1ccc(C2NC(=O)CCC2[N+](=O)[O-])cc1 (stereo not drawn),10.2
19,COCCCC1CCN(Cc2nc(Cc3ccccc3Cl)no2)CC1,5.07
20,CCc1cc(C(=O)O)c(NC(=O)C(c2ccccc2)c2ccccc2)s1,18
21,CC(C)N(Cc1nnc(-c2ccc(Cl)cc2)o1)C(=O)c1cc2ccccc2o1,-40.1
22,Cc1ccnc(NS(=O)(=O)c2ccc(NC(=O)c3ccc4c(c3)OCCO4)cc2)n1,40.4

row,SMILES,"hERG current change (%, negative = inhibition) at 10uM [%]"
1,COc1ccc(CCNC(=O)c2cccc3c2C(=O)N(C2CCCCC2)C3)cc1OC,-24.1
2,CCOC(=O)N1CCN(C(=O)C(=O)Nc2sc3c(c2C(=O)O)CC(C)(C)OC3)CC1,21
3,CC(C)NC(=O)c1onc(CSc2ccc(C(C)C)cc2)c1C(=O)O,23
4,COc1ccccc1-c1nnc(NC(=O)c2ccc(S(=O)(=O)N3CCCC3)cc2)o1,-17.3
5,S=C(NCC1CCCCC1)Nc1ccc(Oc2ccccc2)cc1,12.8
6,O=C(CN1CCN(CC(=O)Nc2ccccc2Cc2ccccc2)CC1)Nc1ccccc1Cl,20
7,O=C(CC1SC(N2CCCCC2)=NC1=O)Nc1cccc(C(=O)Nc2ncccc2O)c1 (stereo not drawn),11.7
8,COc1ccccc1-c1c(C)nn2c(N3CCC(C)CC3)cc(C)nc12,2.78
9,O=C(N[C@@H](Cc1ccccc1)C(=O)OCc1ccccc1)c1nc[nH]c1C(=O)NC1CC[NH2+]CC1.[Cl-],6.23
10,COc1ccccc1N(CC(=O)NC1CCCCC1)S(=O)(=O)c1cccs1,-21.7
11,Nc1ccc(C#Cc2ccc3oc4ccccc4c(=O)c3c2)cc1,12.2
12,COc1ccc(C)cc1S(=O)(=O)N(C)CC(=O)NCc1ccncc1,10.6
13,COc1ccc(S(=O)(=O)N2CCC(C(=O)NCc3ccncc3)CC2)cc1C,-5.06
14,Cc1nn(C)cc1C(C(=O)NC1CCCCC1)N(Cc1ccc(F)cc1)C(=O)c1cnccn1 (stereo not drawn),6.46
15,CCOC(=O)c1cnc2c(OC)cccc2c1N1CCN(c2ccc(OC)cc2)CC1,-47.1
16,COc1ccc(C2NC(=O)NC3=C2CCc2ccccc23)cc1 (stereo not drawn),-22.8
17,O=C1CSC(c2cn(-c3ccccc3)nc2-c2cccs2)N1Cc1ccccc1 (stereo not drawn),-1.38
18,O=C(Cn1sc2ccccc2c1=O)N1CCN(C(=O)c2ccco2)CC1,-12.3
19,Cc1nc(CN2CCN(C(=O)c3ccc(Br)cc3)CC2)cs1,-32.8
20,COc1cc(C2C3=C(CC(C)(C)CC3=O)Nc3ccccc3N2C(C)=O)cc(OC)c1OC (stereo not drawn),3.82
21,COC(=O)c1[nH]c2cc(C)ccc2c1NC(=O)CN1CCc2cc(OC)c(OC)cc2C1,-20.6
22,CCN(C(=O)COC(=O)c1cn(C)c2ccccc12)c1ccc(F)cc1,-11.7

row,SMILES,"hERG current change (%, negative = inhibition) at 10uM [%]"
1,C/C(Cl)=C/Cc1c(C)[nH]c2c(ccc3ccccc32)c1=O,19.2
2,C=CCc1cc(Cl)ccc1OCCOCCN(C)C.O=C(O)C(=O)O,-51.5
3,O=C(COc1ccc(Br)cc1)N1CCN(S(=O)(=O)/C=C/c2ccccc2)CC1,-49.6
4,CN(Cc1ccccc1)/C(=N/O)c1cccc(Cl)c1,-0.00072
5,CCOc1cc(/C=C2\COc3ccccc3C2=O)ccc1OCC(=O)N(C)C,-10.3
6,Cn1nc(C(=O)Nc2ccccc2N2CCCC2)c2ccccc2c1=O,-0.947
7,O=C(O)c1cc(S(=O)(=O)N2CC3CC3C2C(=O)O)c(Cl)cc1Cl (stereo not drawn),19.3
8,O=C(CCC(=O)c1cccs1)Nc1ccccc1F,3.01
9,C=CCN1C(=O)C(CC(=O)O)SC1=Nc1c(C)n(C)n(-c2ccccc2)c1=O (stereo not drawn),1.73
10,CCOc1ccc(NS(=O)(=O)c2ccc(C(=O)NCC(c3ccco3)N(C)C)cc2)cc1 (stereo not drawn),-23.2
11,O=C1N/C(=C/c2ccc(Br)cc2)C(O)=C1C=NCc1ccccc1,0.962
12,S=c1[nH]nc(-c2cccnc2)n1/N=C/C=C/c1ccco1,6.56
13,CCOc1cc(C(c2c(C)[nH][nH]c2=O)c2c(C)[nH][nH]c2=O)cc(Br)c1OC,10.3
14,COc1cccc(CNS(=O)(=O)c2ccc(S(=O)(=O)NC3CC3)cc2)c1,14.2
15,Oc1cc(Br)ccc1C=Nc1ccc(N2CCCCC2)cc1,8.42
16,O=C(OCC(=O)N1CCN(S(=O)(=O)c2ccc(Cl)cc2)CC1)C1CC1,0.609
17,Oc1ccccc1/C=N/N1CCN(c2ccccn2)CC1,-4.41
18,Cc1nc2ccc(NC(=O)N3CCCCC3)cc2nc1C,12.8
19,Cc1sc2ncnc(N3CCN(C(=O)c4ccco4)CC3)c2c1C,-61.8
20,COc1ccc(C(=O)N2CCN(c3ccc(C)cc3)CC2)cc1OC,-21.8
21,c1ccc(C(c2ccccc2)N2CCN(c3ccc4ccccc4n3)CC2)cc1,-3.18
22,Cc1cccc(C)c1OCC(=O)NNC(=O)CCNC(=O)c1ccco1,21.3

row,SMILES,"hERG current change (%, negative = inhibition) at 10uM [%]"
1,O=C1c2ccccc2C(O)N1Cc1ccccc1Cl (stereo not drawn),-0.865
2,S=C=Nc1ccccn1,-16.7
3,COc1ccc(C(=O)NC(C(=O)NCC2CCCO2)C(C)C)cc1 (stereo not drawn),12.5
4,COc1ccc(CN2CCN(CCc3ccccc3)C(CCO)C2)cc1Cn1cncn1 (stereo not drawn),-35.8
5,Cc1cc(C)n(/C(=C\N(C)C)C(=O)c2cccc([N+](=O)[O-])c2)n1,14.4
6,CCN(c1ccccc1)S(=O)(=O)c1ccc(Cl)c(NC(=O)CSc2nncn2C)c1,-15.7
7,COc1ccc2[nH]c3c(=O)n(CCN4CCOCC4)cnc3c2c1,-2.38
8,CC(C)=CCOc1c2ccoc2cc2oc(=O)ccc12,6.33
9,COc1cc(-c2nc3sc(C)c(C)c3c(=O)o2)cc(OC)c1OC,19
10,CCCCOc1cc(C(=O)NCCN(CC)CC)c2ccccc2n1,-65.9
11,Cc1cc(Cl)ccc1NNC(N)=S,2.34
12,Cc1ccc(-n2ncc3c(SCc4ccccn4)ncnc32)c(C)c1,14.5
13,CN1CCN(/N=C/c2ccc(C#N)cc2)CC1.Cl,-34.3
14,C=CCOc1ccccc1C1NC(=O)NC(C)=C1C(=O)NCc1ccccc1 (stereo not drawn),-5.94
15,O=[N+]([O-])c1cc2c(cc1/C=N\NS(=O)(=O)c1ccccc1)OCO2,10.8
16,O=c1[nH]c2ccccc2c(O)c1-c1ccccc1,6.68
17,CC12C(=O)N(c3ccc(C(=O)N4CCOCC4)cc3)C(=O)C1C1c3ccccc3C2c2ccccc21 (stereo not drawn),-6.54
18,CS(=O)(=O)N(CCc1ccccc1)CC(=O)N1CCCC1,-2.89
19,C/C(=N\OC(=O)c1ccc(Cl)cc1)c1nccs1,12.3
20,O=C(/C=C/c1ccc(F)cc1)NCC1(c2ccccc2)CCOCC1,-50.5
21,CCOCCCNc1nc2c([nH]1)c(=O)n(C)c(=O)n2C,-3.9
